For 31 sequences, binding signal (RPM ratio (pull-down/input)) results are on record in paper PMC12820563.

This is one part of the list. The list includes weakly bound sequences.

The experiment has as its target T1, MBP-FoxP3dN (UniProt Q99JB6).
T1 sequence: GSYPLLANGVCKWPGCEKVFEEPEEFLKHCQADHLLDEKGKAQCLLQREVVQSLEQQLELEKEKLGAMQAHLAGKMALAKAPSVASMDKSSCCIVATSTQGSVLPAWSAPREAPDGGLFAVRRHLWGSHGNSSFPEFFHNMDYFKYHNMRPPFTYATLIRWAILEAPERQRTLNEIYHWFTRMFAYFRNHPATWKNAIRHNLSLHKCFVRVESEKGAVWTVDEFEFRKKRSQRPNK
Briefly: PD-seq (MBP pull-down with sequencing). Particulars: 20 mM Tris-HCl pH 7.5, 100 mM NaCl, 1.5 mM MgCl2, 0.4 uM protein, 0.1 uM dsDNA library, 30 min, room temperature, amylose pull-down; high values mean tight binding; double strand, one strand shown.
Consider “GATGATTGTTCTCCCAGCTGATGAATTAGCGGCATCGAGTAAACAAATTTTCCTAATCTTTCTGTTCAAGCGCCATCTAC”, for which the binding signal (RPM ratio (pull-down/input)) is 0.888.
Take “GATGATTGTTCTCCCAGCTGATGAATTTTGGCTTTCGAGTAAACAAATTTTCCTAATCTTTCTGTTCAAGCGCCATCTAC”: the binding signal (RPM ratio (pull-down/input)) was 1.2.
As for “GATGATTGTTCTCCCAGCTGATGAATTTGCCTTCTCGAGTAAACAAATTTTCCTAATCTTTCTGTTCAAGCGCCATCTAC”, the binding signal (RPM ratio (pull-down/input)) turned out to be 1.85.
In the case of “GATGATTGTTCTCCCAGCTGATGAATTACTGAAATCGAGTAAACAAATTTTCCTAATCTTTCTGTTCAAGCGCCATCTAC” it was 0.283; in that of “GATGATTGTTCTCCCAGCTGATGAATTTGATTACTCGAGTAAACAAATTTTCCTAATCTTTCTGTTCAAGCGCCATCTAC”, 6.08; in that of “GATGATTGTTCTCCCAGCTGATGAATTTCGGCTATCGAGTAAACAAATTTTCCTAATCTTTCTGTTCAAGCGCCATCTAC”, 0.622.
In the case of “GATGATTGTTCTCCCAGCTGATGAATTACATAGGTCGAGTAAACAAATTTTCCTAATCTTTCTGTTCAAGCGCCATCTAC” it was 0.413; in that of “GATGATTGTTCTCCCAGCTGATGAATTCTCGGGGTCGAGTAAACAAATTTTCCTAATCTTTCTGTTCAAGCGCCATCTAC”, 0.181; in that of “GATGATTGTTCTCCCAGCTGATGAATTCTGAATATCGAGTAAACAAATTTTCCTAATCTTTCTGTTCAAGCGCCATCTAC”, 0.629.
In the case of “GATGATTGTTCTCCCAGCTGATGAATTCACCTATTCGAGTAAACAAATTTTCCTAATCTTTCTGTTCAAGCGCCATCTAC” it was 0.321.
As to “GATGATTGTTCTCCCAGCTGATGAATTCAAACATTCGAGTAAACAAATTTTCCTAATCTTTCTGTTCAAGCGCCATCTAC”, the binding signal (RPM ratio (pull-down/input)) came out at 1.12.
In the case of “GATGATTGTTCTCCCAGCTGATGAATTATGCCAATCGAGTAAACAAATTTTCCTAATCTTTCTGTTCAAGCGCCATCTAC” it was 1.17; in that of “GATGATTGTTCTCCCAGCTGATGAATTAGATCCATCGAGTAAACAAATTTTCCTAATCTTTCTGTTCAAGCGCCATCTAC”, 0.298; in that of “GATGATTGTTCTCCCAGCTGATGAATTCTTAGTATCGAGTAAACAAATTTTCCTAATCTTTCTGTTCAAGCGCCATCTAC”, 0.42.
Consider “GATGATTGTTCTCCCAGCTGATGAATTTGAGCGGTCGAGTAAACAAATTTTCCTAATCTTTCTGTTCAAGCGCCATCTAC”, for which the binding signal (RPM ratio (pull-down/input)) stood at 0.3.
“GATGATTGTTCTCCCAGCTGATGAATTGTCAACTTCGAGTAAACAAATTTTCCTAATCTTTCTGTTCAAGCGCCATCTAC”: the binding signal (RPM ratio (pull-down/input)) came out at 0.733.
As to “GATGATTGTTCTCCCAGCTGATGAATTCGCAAACTCGAGTAAACAAATTTTCCTAATCTTTCTGTTCAAGCGCCATCTAC”, the binding signal (RPM ratio (pull-down/input)) came out at 0.431.
On to “GATGATTGTTCTCCCAGCTGATGAATTCTATTTGTCGAGTAAACAAATTTTCCTAATCTTTCTGTTCAAGCGCCATCTAC”, for which the binding signal (RPM ratio (pull-down/input)) came out at 5.87.
In the case of “GATGATTGTTCTCCCAGCTGATGAATTTAACTACTCGAGTAAACAAATTTTCCTAATCTTTCTGTTCAAGCGCCATCTAC” it was 0.559.
Regarding “GATGATTGTTCTCCCAGCTGATGAATTACCACCTTCGAGTAAACAAATTTTCCTAATCTTTCTGTTCAAGCGCCATCTAC”, the binding signal (RPM ratio (pull-down/input)) was 0.337.
For “GATGATTGTTCTCCCAGCTGATGAATTCGTTTTTTCGAGTAAACAAATTTTCCTAATCTTTCTGTTCAAGCGCCATCTAC”, the binding signal (RPM ratio (pull-down/input)) is 2.58.
To “GATGATTGTTCTCCCAGCTGATGAATTAGTCCGATCGAGTAAACAAATTTTCCTAATCTTTCTGTTCAAGCGCCATCTAC” belongs 0.242; to “GATGATTGTTCTCCCAGCTGATGAATTGAGTCTTTCGAGTAAACAAATTTTCCTAATCTTTCTGTTCAAGCGCCATCTAC”, 0.597.
Regarding “GATGATTGTTCTCCCAGCTGATGAATTCAACTAGTCGAGTAAACAAATTTTCCTAATCTTTCTGTTCAAGCGCCATCTAC”, the binding signal (RPM ratio (pull-down/input)) worked out at 0.309.
For “GATGATTGTTCTCCCAGCTGATGAATTGTGGGCCTCGAGTAAACAAATTTTCCTAATCTTTCTGTTCAAGCGCCATCTAC”, the binding signal (RPM ratio (pull-down/input)) worked out at 0.719.
In the case of “GATGATTGTTCTCCCAGCTGATGAATTCCGTCAGTCGAGTAAACAAATTTTCCTAATCTTTCTGTTCAAGCGCCATCTAC”, the binding signal (RPM ratio (pull-down/input)) was 0.433.
In the case of “GATGATTGTTCTCCCAGCTGATGAATTGCACTGCTCGAGTAAACAAATTTTCCTAATCTTTCTGTTCAAGCGCCATCTAC” it was 0.798; in that of “GATGATTGTTCTCCCAGCTGATGAATTGCCCGGGTCGAGTAAACAAATTTTCCTAATCTTTCTGTTCAAGCGCCATCTAC”, 0.289; in that of “GATGATTGTTCTCCCAGCTGATGAATTGTTAGCCTCGAGTAAACAAATTTTCCTAATCTTTCTGTTCAAGCGCCATCTAC”, 1.48.
To “GATGATTGTTCTCCCAGCTGATGAATTTAGTCTCTCGAGTAAACAAATTTTCCTAATCTTTCTGTTCAAGCGCCATCTAC” belongs 0.886; to “GATGATTGTTCTCCCAGCTGATGAATTTCAGCCATCGAGTAAACAAATTTTCCTAATCTTTCTGTTCAAGCGCCATCTAC”, 1.24.
